Experimental findings from publication PMC10668032 are described below.

The other results are listed elsewhere or left out. At the low end of the ranking the order means little.

For this experiment, the target named is SIX1-Q177R homeodomain (UniProt Q15475). Nature of the experiment: universal protein binding microarray. As to conditions: Universal all-10-mer PBM (8x60K, AMADID 030236), 300 nM GST-tagged protein, Alexa Fluor 488 anti-GST; buffer, salt, pH and temperature not stated; high values mean tight binding; most listed sequences are background and not binding sites; double strand, one strand shown.
As to TGCCGGAA, the binding signal was 0.00717 E-score.
Under AGCACAGG stands -0.068 E-score; under AACCACTT, -0.13 E-score; under CGGCGTAG, -0.0256 E-score.
Take CGGACATC: the binding signal was -0.21 E-score.
For the sequence AGTTGGTA, the binding signal came to 0.0683 E-score.
The figure for AGGTTTCA is 0.0855 E-score; for AGCATACA it is 0.132 E-score.
Under AAGAGCGA stands -0.213 E-score; under CTGCTTCA, -0.0646 E-score.
The figure for AGCTTTGC is -0.274 E-score; for ATGGGTCC it is 0.0249 E-score.
GACTGCTC: the binding signal was -0.244 E-score.
Under TCCATCCA stands -0.0863 E-score; under CGTCCACC, -0.132 E-score; under CCATTAAA, -0.102 E-score.
The figure for AGGCCCAT is -0.243 E-score.
Under CCATTAAG stands 0.0396 E-score; under ACCCAAGT, 0.157 E-score; under GCATTGCC, -0.0851 E-score.
With CTGCTCTC, the binding signal is -0.145 E-score.
With CAGTTTCA, the binding signal is -0.125 E-score.
Regarding CGGCGGTA, the binding signal is -0.0315 E-score.
The figure for ATACTTTA is -0.041 E-score.
Under CAGGGTGC stands 0.124 E-score; under GTTCGACA, 0.211 E-score.
The figure for AAGGGTGC is 0.149 E-score; for ACAACCGC it is 0.106 E-score.
Take AGCTGAGA: the binding signal was -0.237 E-score.
Under AGATATAG stands -0.0576 E-score; under CCAAGTCA, -0.0639 E-score.
The figure for TTCAGGAA is -0.209 E-score.
As for ACTGCGGG, the binding signal worked out at 0.0815 E-score.
The figure for CGAGTGCC is -0.0391 E-score; for GGCGTCTA it is -0.0699 E-score.
Under CTACTTCC stands -0.054 E-score; under CCACAAAA, -0.0585 E-score; under AAAGTACC, -0.0231 E-score.
As for CCGCTACG, the binding signal was -0.0722 E-score.
The figure for GCATACGA is -0.145 E-score.
The figure for TGCGGTAA is -0.151 E-score.
The figure for CGTGACAC is 0.454 E-score; for AAAATGTG it is -0.112 E-score.
Take CGGATGGA: the binding signal is -0.152 E-score.
Under GGGGTCAA stands 0.253 E-score; under GGTACTAA, 0.127 E-score.
The figure for CGGGCGTA is 0.0802 E-score; for ATTGGGAG it is -0.055 E-score; for AGGGGGAC it is -0.0123 E-score.
Take CCTGTTGC: the binding signal is -0.066 E-score.
Under CAATGTGA stands -0.0861 E-score.
For the sequence GAGCGATC, the binding signal is -0.169 E-score.
Take ACTAGTCA: the binding signal is -0.0327 E-score.
As to ATAGTCAG, the binding signal is -0.124 E-score.
On to CAAGCGAA, for which the binding signal was -0.216 E-score.
Under AGTAATGG stands 0.0534 E-score.
The figure for GACGCCCA is 0.0997 E-score.
In the case of AGGAAGCG, the binding signal was -0.235 E-score.
For ACTAGATG, the binding signal was determined as 0.0643 E-score.
With GATCTATA, the binding signal is -0.116 E-score.
The figure for ATGGGCCC is -0.238 E-score; for GGCAGGCC it is -0.303 E-score; for CTCGCAAA it is -0.108 E-score.
Under GGCATGAC stands -0.125 E-score; under GATTGGGC, -0.194 E-score.
For the sequence GGCCGACA, the binding signal came out at 0.0563 E-score.
The figure for ACCGGTCC is -0.122 E-score; for ACCATACA it is 0.32 E-score; for ATAAATCA it is 0.00587 E-score.
Take AAAGTCCC: the binding signal was -0.169 E-score.
Under TCAATGAA stands -0.0866 E-score; under CCTAGGTA, 0.0378 E-score; under CCGGATCC, 0.249 E-score.
The figure for CATGCTTA is 0.0208 E-score; for ACTACGAA it is -0.0791 E-score; for TATAGACA it is 0.28 E-score.
In the case of ATCCCCCC, the binding signal amounted to 0.197 E-score.
With TGACGACA, the binding signal is 0.212 E-score.
On to CCTGCGTA, for which the binding signal was -0.0428 E-score.
As to AGGTGACA, the binding signal turned out to be 0.251 E-score.
As for ATACCTAT, the binding signal came out at 0.0929 E-score.
ACGATGCC: the binding signal is -0.156 E-score.
Under GGTTTTTA stands -0.00611 E-score.
Under CATCACCG stands -0.00649 E-score.
The figure for CCGGCGGC is -0.195 E-score; for TATCTACA it is 0.202 E-score.
With GGCGGCAC, the binding signal is -0.0151 E-score.
As to GAGCCGGA, the binding signal was -0.0316 E-score.
Under CAACAGGG stands -0.0231 E-score; under ACTATGGA, -0.0202 E-score; under GTGGCGTA, 0.134 E-score.
Under AGCCTATC stands -0.181 E-score.
Under TCGCGCAA stands -0.0775 E-score.
In the case of ACAAGCGT, the binding signal is -0.0148 E-score.
CGCTTAAG: the binding signal is -0.0394 E-score.
Turning to GCGCAGCA, the binding signal was -0.0426 E-score.
Consider GACTAGCC, for which the binding signal was -0.243 E-score.
The figure for CATGGGGA is 0.126 E-score; for ATTTAAAC it is 0.0723 E-score.
The figure for GAGTTATC is 0.0756 E-score.
With ATGTAACG, the binding signal was 0.0103 E-score.
Under GATAACAA stands 0.0184 E-score.
The figure for ACAGATGC is -0.269 E-score; for CAAAACCA it is -0.00329 E-score; for CCTGCGGC it is 0.00473 E-score.
Under AATACAAC stands 0.0284 E-score; under ACAGATTA, -0.172 E-score.
For the sequence GAATGGGA, the binding signal is -0.23 E-score.
The figure for CCAGCACA is 0.111 E-score; for CTATAACC it is 0.0556 E-score.
Under AGACGTTA stands -0.137 E-score.
Consider AAGTTAAC, for which the binding signal came to 0.0305 E-score.
As for CTCTTCGC, the binding signal is -0.102 E-score.
The figure for GGGTTTAA is 0.232 E-score; for CAATGGAC it is -0.123 E-score.
The figure for ATAACCAA is -0.288 E-score; for ATAAAAGA it is 0.063 E-score.
The figure for ACAGCTCT is -0.169 E-score.
In the case of CGGTGGTA, the binding signal was found to be 0.105 E-score.
The figure for AGAGGGCG is -0.1 E-score.
The figure for CGCAAAGA is -0.0951 E-score; for CCTCTGGC it is -0.0166 E-score.
Under AAACAGGA stands -0.00667 E-score; under CGGTTGAA, -0.0287 E-score.
Turning to CAAGACAG, the binding signal is 0.00975 E-score.
Turning to GCCACGAA, the binding signal was -0.0235 E-score.
Regarding AGAATCCT, the binding signal is -0.198 E-score.
For the sequence ACTCGAGT, the binding signal stood at 0.125 E-score.
For the sequence GGTAAGCA, the binding signal was -0.0574 E-score.
Under CGTAACAG stands -0.0492 E-score; under CAGACATA, -0.0692 E-score.
The figure for AAGCACGG is 0.00957 E-score.
The figure for AGGTTACT is -0.0221 E-score; for TGCGCAAA it is -0.203 E-score; for TCTTATCA it is -0.0614 E-score.
For CTTACCCA, the binding signal came to 0.138 E-score.
As to GGCCTGTA, the binding signal is -0.219 E-score.
Under TAACGAAA stands -0.122 E-score.
Take CTTCTATA: the binding signal was -0.0674 E-score.
The figure for AAAGAGAG is -0.154 E-score; for GGCTTGAA it is -0.113 E-score.
The figure for GTGCCCCA is 0.0418 E-score.
Under AGTCAATA stands 0.0279 E-score; under ATAAACAT, -0.192 E-score.
Regarding GGCGAGCC, the binding signal was -0.131 E-score.
Under ACCAAAAA stands 0.027 E-score; under CCGTGTCC, 0.408 E-score; under AGAGCAGC, -0.116 E-score.
Under ATAGAATG stands -0.139 E-score; under ACTTTAGA, -0.156 E-score.
Under ATGTGTTC stands 0.0422 E-score; under ATACATTG, -0.0865 E-score.
As for ACCTAATC, the binding signal was -0.162 E-score.
Under CAGTATCA stands 0.2 E-score.
Under CGTGTCGC stands 0.44 E-score; under CTCTACGA, -0.0029 E-score; under CAATGGTC, -0.117 E-score.
Under AATCAGGC stands -0.222 E-score; under GTGACTTA, 0.0306 E-score.
Consider CAATAAAC, for which the binding signal is -0.104 E-score.
The figure for GCATGCCA is -0.203 E-score; for ACATCCCT it is -0.0909 E-score; for CATAGTAG it is 0.0661 E-score.
Under TGAATGAA stands -0.122 E-score; under GGACTTCA, -0.0434 E-score; under ATGAAGAG, -0.0892 E-score.
Under GGCGATAC stands 0.174 E-score; under ACCGTAAG, -0.114 E-score; under AGTTGACA, 0.0518 E-score.
ATGGGGCC: the binding signal is -0.219 E-score.
The figure for CGGCCCTC is -0.0696 E-score; for AGCTCTGG it is -0.269 E-score.
